The BET-seq Pho4 binding data (Le et al. 2018)
This is one part of the list. Values were computed here from the reads of four pooled replicates and scatter widely.

target: T1, Pho4 (S. cerevisiae) (UniProt P07270); test: relative binding free energy (BET-seq); higher = weaker binding; conditions: reference: library average
T1 sequence: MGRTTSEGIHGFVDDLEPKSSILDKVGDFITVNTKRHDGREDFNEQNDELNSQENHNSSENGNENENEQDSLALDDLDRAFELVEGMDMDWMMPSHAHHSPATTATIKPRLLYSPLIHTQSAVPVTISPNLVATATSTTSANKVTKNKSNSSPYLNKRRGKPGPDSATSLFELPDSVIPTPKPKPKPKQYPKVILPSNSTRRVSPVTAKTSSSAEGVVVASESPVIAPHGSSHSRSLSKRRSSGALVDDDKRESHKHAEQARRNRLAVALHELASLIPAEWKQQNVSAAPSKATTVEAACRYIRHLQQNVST

Sequence | relative binding free energy [kcal/mol]
CGTATCACGTGTGGGT | 0.17
GATACCACGTGGGGTG | -0.15
TATGGCACGTGCGGCT | -0.12
GTATCCACGTGAGTTG | 0.19
TGTGTCACGTGCGTAA | 0.05
AAGAGCACGTGTGGTC | -0.05
GTACTCACGTGGCGTG | 0.09
TCCAGCACGTGGTGTG | -0.16
GGGGTCACGTGCTTCG | 0.03
AGAGGCACGTGGTGGT | -0.1
TACTGCACGTGGGTGG | -0.18
GAGATCACGTGTGTAT | 0.24
AGGTGCACGTGGAGAG | 0.03
GGTGACACGTGGACTG | 0.06
GGGAGCACGTGGATAA | -0.02
ATTGGCACGTGCATTT | -0.25
ATATGCACGTGTAAAT | 0.11
TTCGACACGTGTTTGA | 0.02
TAGGACACGTGGTGCA | -0.12
GGCTGCACGTGATGGA | 0.24
GGATCCACGTGTTAGG | 0.03
GGGAGCACGTGATGCT | 0.05
GCCAGCACGTGGGGGT | -0.27

Sequence | relative binding free energy [kcal/mol]
TAATTCACGTGCGTAG | 0.26
GGGGGCACGTGTGGGG | -0.04
TGTTACACGTGGACGA | 0.24
AGTGACACGTGTTTTG | -0.05
TGTAACACGTGAGGGG | 0.25
GACGTCACGTGTATAG | 0.3
TGTATCACGTGTAATC | 0.27
TGGCTCACGTGTTTAA | 0.17
GGGGTCACGTGTTGCA | 0.13
GAATACACGTGGGGGT | 0.08
TAGATCACGTGGTCTA | 0.16
TTTGCCACGTGGTATT | -0.07
TACACCACGTGGTGGT | 0
TTATGCACGTGAGGTA | 0.1
GGCTGCACGTGAGGGG | 0.31
TCGTTCACGTGCAGTT | 0.28
TTGAGCACGTGGCGAG | -0.18
TTCTTCACGTGGCTGG | 0.16
AAGGCCACGTGGCGGG | -0.23
CTGTGCACGTGGGCGG | -0.12
TTGGTCACGTGTATCT | 0.25
ATCAGCACGTGGTGGT | -0.21
GGGCACACGTGATCGT | 0.25

Sequence | relative binding free energy [kcal/mol]
GGGCGCACGTGTTTGG | -0.06
TACGGCACGTGCGGGT | -0.06
ACAGTCACGTGAGGTG | 0.13
TATAACACGTGGGGCG | -0.19
TTTATCACGTGTTCGA | 0.14
AAAGGCACGTGTTTGA | -0.1
ATGTCCACGTGGTGCA | 0
GTGTGCACGTGCAAGG | -0.11
TGACTCACGTGAATGT | 0.44
ATCATCACGTGGTATG | 0.22
TAATACACGTGTAGTG | -0.05
TGTAGCACGTGAGGTT | 0.19
TGATACACGTGGGGTC | -0.13
GTAGCCACGTGGAAGG | 0.13
AAAAGCACGTGGGAGT | -0.18
TGGATCACGTGGGTGA | 0.08
AGAGTCACGTGTAATT | 0.29
AGTCGCACGTGGGTGA | -0.22
ATTTTCACGTGTCGTT | 0.29
TCTGGCACGTGTTTTG | -0.09
TTTTACACGTGGTGTC | 0.1
GTGAACACGTGGTTAA | 0.07
TTTTACACGTGCGGGT | 0.04

Sequence | relative binding free energy [kcal/mol]
TTTCACACGTGTAGGA | 0.21
TGTTCCACGTGAGCGG | 0.35
TTATTCACGTGTATAT | 0.22
GTGGCCACGTGCAGGG | -0.17
AAGGTCACGTGCGAGG | -0.08
TGGGGCACGTGGGAAT | -0.04
TAGTGCACGTGTGGTT | 0.13
CGTGCCACGTGGGGTA | -0.23
TTGAACACGTGGTGCT | -0.08
TAGTGCACGTGTGGAT | 0.02
AGTGGCACGTGGCATT | -0.14
TTGCGCACGTGGGCGT | -0.23
AAAAGCACGTGTTGTT | -0.15
CTTATCACGTGTTATT | 0.29
GTACACACGTGGGGGA | -0.11
TTGCTCACGTGAAGTG | 0.4
TCTGCCACGTGGGATT | -0.03
ATGGTCACGTGATTTG | 0.37
GTAAACACGTGAGTTT | 0.34
TGCGGCACGTGACGGA | 0.04
CTAGACACGTGGTGTG | -0.1
AGTGTCACGTGGGCCT | -0.1
AGTGTCACGTGAATAA | 0.41

Sequence | relative binding free energy [kcal/mol]
CATCGCACGTGGGGGC | -0.18
AAAGACACGTGGTGTG | -0.06
GTACGCACGTGGGTCT | -0.18
TAAGTCACGTGGTTAA | 0
AGTTTCACGTGATAAG | 0.25
GAATCCACGTGTAGGG | 0.14
AGGTCCACGTGTAGTA | 0.07
TGAGCCACGTGATGTT | 0.12
GTAATCACGTGGTCGT | 0.08
GATTACACGTGTTTAG | -0.05
TTTTACACGTGACTGG | 0.19
TTTTGCACGTGGTCGG | -0.09
GTGTGCACGTGCCTTG | -0.13
TGGTTCACGTGCATAA | 0.21
TTCTACACGTGGTATT | -0.06
AGTGGCACGTGTGCGA | -0.24
TTTTTCACGTGTCCTG | 0.19
TATGACACGTGGTATT | -0.04
TAAGACACGTGAAGTG | 0.28
GATTTCACGTGCGGTC | 0.28
GGACGCACGTGATTTG | 0.14
TTCTTCACGTGCGTTG | 0.21
CGTTTCACGTGGGCTG | 0.1
